{"source": "PubChem BioAssay AID504332", "about": "(National Center for Advancing Translational Sciences (NCATS), 2011)", "note": "The campaign covered roughly 350,000 compounds. About 31,000 (8.9%) were called active. This list was built around the results that the source calls inconclusive (neither active nor inactive); the mix of calls is not that of the screen. Calls come from the whole dose curve; as a rule, active = well fitted inhibition curve with a large enough effect; inconclusive = small, poorly fitted or top-dose-only effect; inactive = no such curve, though single readings can be large or run the other way. Potencies beside an inconclusive call are fits to weak or partial responses and may not hold up. Where a SMILES comes first, the peptide text is derived from it. [ ]: non-standard residue; d: D form. Inp = O=C(O)C1CCNCC1", "data": [{"biological_target": "Histone-lysine N-methyltransferase EHMT2 (Homo sapiens) (UniProt Q96KQ7)", "sequence (Q96KQ7 whole entry, looked up)": "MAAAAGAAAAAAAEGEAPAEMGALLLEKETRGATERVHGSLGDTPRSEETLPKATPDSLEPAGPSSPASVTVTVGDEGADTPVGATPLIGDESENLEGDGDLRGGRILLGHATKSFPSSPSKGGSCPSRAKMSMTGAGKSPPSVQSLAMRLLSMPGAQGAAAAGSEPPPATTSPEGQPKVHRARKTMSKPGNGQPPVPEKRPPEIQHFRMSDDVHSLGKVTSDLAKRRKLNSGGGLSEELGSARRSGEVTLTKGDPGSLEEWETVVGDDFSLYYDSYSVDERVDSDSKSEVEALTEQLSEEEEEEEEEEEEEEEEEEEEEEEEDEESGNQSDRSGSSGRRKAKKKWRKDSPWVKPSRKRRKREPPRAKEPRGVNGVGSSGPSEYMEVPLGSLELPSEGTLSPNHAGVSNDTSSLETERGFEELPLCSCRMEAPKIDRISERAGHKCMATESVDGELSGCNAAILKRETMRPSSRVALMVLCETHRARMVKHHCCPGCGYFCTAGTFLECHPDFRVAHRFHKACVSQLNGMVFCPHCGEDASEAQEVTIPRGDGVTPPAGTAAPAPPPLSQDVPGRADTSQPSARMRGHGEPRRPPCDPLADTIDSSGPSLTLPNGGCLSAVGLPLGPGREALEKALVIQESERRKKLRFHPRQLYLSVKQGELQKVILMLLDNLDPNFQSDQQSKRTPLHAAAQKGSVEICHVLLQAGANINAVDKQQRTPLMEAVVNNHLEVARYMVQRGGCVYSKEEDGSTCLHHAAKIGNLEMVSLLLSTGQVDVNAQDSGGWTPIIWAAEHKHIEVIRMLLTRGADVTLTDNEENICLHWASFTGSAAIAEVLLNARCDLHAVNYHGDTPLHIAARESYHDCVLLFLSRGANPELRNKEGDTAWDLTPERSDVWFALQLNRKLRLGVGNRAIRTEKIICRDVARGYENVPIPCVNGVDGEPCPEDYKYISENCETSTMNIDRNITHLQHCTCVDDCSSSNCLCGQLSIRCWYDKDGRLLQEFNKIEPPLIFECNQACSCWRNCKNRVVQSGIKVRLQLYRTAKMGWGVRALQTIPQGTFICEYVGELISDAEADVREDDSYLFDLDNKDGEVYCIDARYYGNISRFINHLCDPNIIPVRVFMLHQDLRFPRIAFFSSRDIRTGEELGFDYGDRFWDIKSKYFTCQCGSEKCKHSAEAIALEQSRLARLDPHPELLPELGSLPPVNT", "assay": "qHTS Assay for Inhibitors of Histone Lysine Methyltransferase G9a; note: nearly all actives have a fitted effect of over 75% in size; note: potency is the fitted concentration of half-maximal effect; tags give direction and shape of the fitted curve; for activity, negative = inhibition: % is set by controls: 0 for no effect and ±100 for the full control effect", "conditions": "G9a H3K9 monomethylation, AlphaScreen, 2 h; activity, negative = inhibition: at 59 µM (top of the series) unless noted", "how_it_was_run": "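Quantitative HTS format: methyltransferase activity on a biotin-tagged H3K9 peptide is measured by AlphaScreen, using a rabbit anti-monomethyl-H3K9 antibody with streptavidin donor and anti-IgG acceptor beads. Final levels are 20 nM enzyme, 500 nM peptide, 20 uM SAM; 2 h RT.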", "values": [{"compound": "COc1ccccc1CNC(=O)c1ccccc1N(C)S(C)(=O)=O", "Potency": "inconclusive: 89.1 µM [inhibitor, single point]"}, {"compound": "Cc1cccc(C)c1OC(=O)CSc1nnc(-c2cccs2)o1", "Potency": "inconclusive: 31.6 µM [inhibitor, partial curve, poor fit]"}, {"compound": "CCN(CC(=O)Nc1c(F)cccc1F)C(=O)COc1ccc2c(C)cc(=O)oc2c1", "Potency": "inconclusive: 35.5 µM [inhibitor, partial curve, poor fit]"}, {"compound": "COc1cccc(NC(=O)CN(C)C(=O)c2cc(-c3ccc(C)o3)nc3ccccc23)c1", "Potency": "inconclusive: 3.55 µM [inhibitor, single point]"}, {"compound": "C=CCNC(=S)N/N=C(\\C)c1ccccn1", "activity, negative = inhibition": "inactive: -2.04% [at 102 µM]"}, {"compound": "Cc1ccccc1NCC(=O)N/N=C/c1c[nH]c2ccccc12", "Potency": "inconclusive: 50.1 µM [inhibitor, partial curve]"}, {"compound": "COC(=O)CN1C(=O)C(O)(CC(=O)c2cccc(Br)c2)c2ccccc21", "note": "(centres undefined)", "Potency": "inconclusive: 100 µM [inhibitor, single point]"}, {"compound": "COc1ccccc1N1CCN(Cc2cc3c(cc2Br)OCCO3)CC1", "Potency": "inconclusive: 89.1 µM [inhibitor, single point]"}, {"compound": "CCCCCC(=O)Nc1ccc(N2CCOCC2)c(S(=O)(=O)Nc2ccc(OC)cc2)c1", "Potency": "active: 11.2 µM"}, {"compound": "CCCCSc1nc2sc3c(c2c(=O)n1-c1ccc(C)cc1)CCN(C)C3", "Potency": "inconclusive: 56.2 µM [inhibitor, partial curve, poor fit]"}, {"compound": "COc1ccc(CNC(=O)CCc2nnc3n(CC(C)C)c(=O)c4ccccc4n23)cc1", "activity, negative = inhibition": "inactive: -0.171%"}, {"compound": "O=C1CN(C(=O)COc2ccccc2)c2ccccc2N1", "Potency": "inconclusive: 89.1 µM [inhibitor, single point]"}, {"compound": "Cc1nc(CSc2nsc(/C=C/N(C)C)c2C#N)cs1", "Potency": "active: 20 µM"}, {"compound": "OCCC1CN(Cc2ccccc2-c2ccco2)CCN1Cc1ccccc1", "note": "(centres undefined)", "Potency": "inconclusive: 79.4 µM [inhibitor, single point]"}, {"compound": "Cc1ccc(C)c(CN2C(=O)c3ccccc3S(=O)(=O)c3ccc(C(=O)N4CCN(c5ccccc5F)CC4)cc32)c1", "activity, negative = inhibition": "inactive: -5.05%"}, {"compound": "Cc1nn(Cc2ccc(F)cc2)c(C)c1NC(=O)c1cc(-c2ccc3c(c2)OCO3)on1", "Potency": "inconclusive: 89.1 µM [inhibitor, single point]"}, {"compound": "O=S(=O)(Nc1ccc(-c2ccc(N3CCCC3)nn2)cc1)c1cccc(C(F)(F)F)c1", "activity, negative = inhibition": "inactive: 3.04%"}, {"compound": "COc1ccc2c(c1OC)C(=O)OC2CC(=O)c1ccc(O)c(O)c1", "note": "(centres undefined)", "Potency": "active: 39.8 µM"}, {"compound": "NS(=O)(=O)c1ccc(CCNC(=O)C2CC(=O)N(Cc3ccccc3Cl)C2)cc1", "note": "(centres undefined)", "activity, negative = inhibition": "inactive: -3.09%"}, {"compound": "COc1ccccc1NC(=S)N(Cc1ccc(C(=O)O)cc1)Cc1ccc(OC)c(OC)c1", "Potency": "inconclusive: 89.1 µM [inhibitor, partial curve, poor fit]"}, {"compound": "S=C(NCC(c1ccco1)N1CCCC1)Nc1ccccc1", "note": "(centres undefined)", "Potency": "inconclusive: 17.8 µM [inhibitor, partial curve, poor fit]"}, {"compound": "COc1cc(/C=C/C(=O)O)ccc1S(=O)(=O)N1CCCc2ccccc21", "Potency": "inconclusive: 44.7 µM [inhibitor, partial curve, poor fit]"}, {"compound": "CCc1nn(C(C)C(=O)N(C)Cc2ccccc2)c(=O)c2cc3occc3n12", "note": "(centres undefined)", "Potency": "inconclusive: 89.1 µM [inhibitor, single point]"}, {"compound": "CCOC(=O)N1CCN(C(=O)C(=O)N/N=C/c2ccc(OC)cc2OC)CC1", "activity, negative = inhibition": "inactive: 42.9%"}, {"compound": "CC(C)CN(C(=O)c1ccc2c(c1)OCO2)C1CCS(=O)(=O)C1", "note": "(centres undefined)", "activity, negative = inhibition": "inactive: -5.1% [at 102 µM]"}, {"compound": "S=C(NC1CCCCC1)N1CCn2cccc2C1c1ccncc1", "note": "(centres undefined)", "Potency": "inconclusive: 56.2 µM [inhibitor, partial curve]"}, {"compound": "N#Cc1ccc(C(=O)N2CCN(C(=O)C3CCCO3)CC2)cc1", "note": "(centres undefined)", "Potency": "inconclusive: 1.12 µM [inhibitor, single point]"}, {"compound": "O=C(c1ccc(F)cc1F)N1CCN(S(=O)(=O)c2ccc3c(c2)OCCO3)CC1", "activity, negative = inhibition": "inactive: -3.6% [at 12.7 µM]"}, {"compound": "COc1cccc(NC(=O)Cc2nc(-c3ccccc3)sc2-c2ccc(C)cc2)c1", "Potency": "inconclusive: 89.1 µM [inhibitor, single point]"}, {"compound": "CCOC(=O)C1=C(CN2CCN(c3cc(C)ccc3C)CC2)NC(=O)NC1c1ccc(Cl)cc1", "note": "(centres undefined)", "Potency": "inconclusive: 31.6 µM [inhibitor, partial curve, poor fit]"}, {"compound": "COc1cccc(NC(=O)Cn2c(=O)n(CCCCC(=O)NCCc3ccccc3)c(=O)c3ccccc32)c1", "activity, negative = inhibition": "inactive: 3.66%"}, {"compound": "COc1ccc(Cn2c(=O)oc3ccc(C)cc32)cc1OC", "activity, negative = inhibition": "inactive: 9.96% [at 12.7 µM]"}, {"compound": "CCn1ccc2cc(S(=O)(=O)N3CCCN(C(=O)NCCOC)CC3)ccc21", "activity, negative = inhibition": "inactive: -3.73%"}, {"compound": "CCCCNCCOCCSc1ccc(Cl)cc1", "Potency": "active: 8.91 µM"}, {"compound": "COc1ccc(C)cc1NS(=O)(=O)c1ccc2[nH]c(=O)c(=O)[nH]c2c1", "activity, negative = inhibition": "inactive: 1.72%"}, {"compound": "O=C(O)COc1ccc(Nc2ccccc2)cc1", "Potency": "active: 44.7 µM"}, {"compound": "Cc1ccc(C2(O)CN(c3ccccc3C)C3=[N+]2CCS3)cc1", "note": "(centres undefined)", "Potency": "active: 31.6 µM"}, {"compound": "COC(=O)c1c(C)[nH]c(C)c1-c1ccccc1Cl", "activity, negative = inhibition": "inactive: -18% [at 2.33 µM]"}, {"compound": "CC(OC(=O)c1cccc([N+](=O)[O-])c1)C(=O)N1CCc2ccccc21", "note": "(centres undefined)", "Potency": "inconclusive: 7.94 µM [inhibitor, single point]"}, {"compound": "O=c1c(-c2cccc(Cl)c2)nc2cncnc2n1Cc1ccccc1Cl", "activity, negative = inhibition": "inactive: 7.61% [at 12.7 µM]"}, {"compound": "CC1CCN(c2c([N+](=O)[O-])nn(-c3ccc4c(c3)OCCO4)[n+]2[O-])CC1", "Potency": "active: 35.5 µM"}, {"compound": "N[C@@H](Cc1ccccc1)C(=O)N1CCC(C(=O)NCC(=O)NCC(=O)O)CC1", "note": "(H-F[Inp]GG-OH)", "Potency": "inconclusive: 79.4 µM [inhibitor, single point]"}, {"compound": "Cc1ccc(C)c(N(C)C(=O)c2ccc3c(=O)n4c(nc3c2)CCCCC4)c1", "activity, negative = inhibition": "inactive: 5.2% [at 102 µM]"}, {"compound": "O=C(Nc1nc(-c2ccccc2)cs1)c1cccc(S(=O)(=O)N2CCN(Cc3ccccc3)CC2)c1", "Potency": "inconclusive: 79.4 µM [inhibitor, single point]"}, {"compound": "O=C(O)C1CCCCC1C(=O)NCc1ccncc1", "note": "(centres undefined)", "activity, negative = inhibition": "inactive: 15%"}, {"compound": "CCN(CC)C(=O)Cn1cc(S(=O)(=O)Cc2cccc([N+](=O)[O-])c2)c2ccccc21", "Potency": "inconclusive: 89.1 µM [inhibitor, single point]"}, {"compound": "COc1cccc(/C=C2/SC(=O)N(CC(=O)N3CCc4ccccc4C3)C2=O)c1OCC(=O)O", "activity, negative = inhibition": "inactive: -35.2%"}, {"compound": "CC1CCCCC1NC(=O)Cn1ncc2ccccc21", "note": "(centres undefined)", "Potency": "inconclusive: 7.94 µM [inhibitor, partial curve, poor fit]"}, {"compound": "CCOc1ccc(S(=O)(=O)NN)cc1", "Potency": "inconclusive: 3.55 µM [inhibitor, single point]"}, {"compound": "O=C(O)c1csc(-c2ccccc2)n1", "Potency": "inconclusive: 79.4 µM [inhibitor, single point]"}, {"compound": "Cc1ccc(S(=O)(=O)Nc2c(C(=O)O)[nH]c3ccccc23)cc1C", "Potency": "active: 15.8 µM"}, {"compound": "Cc1cc(C(=O)CSc2nnc(-c3ccco3)o2)c(C)n1CC1COc2ccccc2O1", "note": "(centres undefined)", "Potency": "inconclusive: 50.1 µM [inhibitor, partial curve]"}, {"compound": "COc1ccc([N+](=O)[O-])cc1NC(=O)CCS(=O)(=O)c1ccc(Br)cc1", "Potency": "active: 14.1 µM"}, {"compound": "O=C(CN1CCc2ccccc2C1)Nc1cccc(S(=O)(=O)N2CCCC2)c1", "Potency": "active: 3.98 µM"}, {"compound": "CCc1nc(N=C(N)N)nc2ccccc12", "activity, negative = inhibition": "inactive: -3.14% [at 102 µM]"}, {"compound": "COc1cc(C(=O)NC(=S)Nc2cccc3nc(C)ccc23)cc(OC)c1OC", "Potency": "inconclusive: 70.8 µM [inhibitor, single point]"}, {"compound": "C/C(=N\\Nc1cc(C)nc(NCc2ccccc2)n1)c1ccc([N+](=O)[O-])cc1", "Potency": "inconclusive: 10 µM [inhibitor, partial curve, poor fit]"}, {"compound": "Cc1ccc(NC(=O)C2CCN(S(=O)(=O)c3cccc4nonc34)CC2)cc1", "Potency": "inconclusive: 39.8 µM [inhibitor, single point]"}, {"compound": "Cc1nn(C)c(C)c1NS(=O)(=O)c1ccc(OC(F)(F)F)cc1", "activity, negative = inhibition": "inactive: -1.93% [at 102 µM]"}, {"compound": "CCN(CC)c1ccc(/C=C(/C#N)C(=O)NC(C)C)o1", "Potency": "inconclusive: 10 µM [inhibitor, partial curve, poor fit]"}, {"compound": "CC(=O)Nc1ccc(S(=O)(=O)N2CCC(C(=O)NCCC(=O)Nc3nccs3)CC2)cc1", "activity, negative = inhibition": "inactive: 12.7% [at 102 µM]"}, {"compound": "Cc1nnc(SCC2=C(C(=O)O)N3C(=O)C(NC(=O)Cc4ccccc4)C3SC2)s1", "note": "(centres undefined)", "Potency": "inconclusive: 2 µM [inhibitor, partial curve, poor fit]"}, {"compound": "CC(=O)Oc1c2occc2cc2ccc(=O)oc12", "Potency": "inconclusive: 0.251 µM [inhibitor, full curve, poor fit]"}, {"compound": "Cc1ccc2nc(NC(=O)CN3C(=O)C4CC=CCC4C3=O)sc2c1", "note": "(centres undefined)", "Potency": "inconclusive: 25.1 µM [inhibitor, partial curve, poor fit]"}, {"compound": "CCN1CCCc2cc(CN(CCN3CCOCC3)C(=S)Nc3cccc(Cl)c3)ccc21", "Potency": "inconclusive: 35.5 µM [inhibitor, single point]"}, {"compound": "CC1CCN(S(=O)(=O)c2ccc(NC(=O)Cc3ccccc3)cc2)CC1", "Potency": "inconclusive: 39.8 µM [inhibitor, single point]"}, {"compound": "Cc1c(C(=O)CN2CCN(c3ccccc3)CC2)c2ccccc2n1C", "Potency": "inconclusive: 56.2 µM [inhibitor, partial curve, poor fit]"}, {"compound": "CCCS(=O)(=O)N1CCc2cc(OC)c(OC)cc2C1", "Potency": "inconclusive: 79.4 µM [inhibitor, single point]"}, {"compound": "CCOC(=O)c1cc(C(C)(C)C)oc1CNC(=O)c1c(C)oc2c1CCCC2", "Potency": "inconclusive: 39.8 µM [inhibitor, single point]"}]}]}
